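Five concentrations, 48 hours, 96-well plates. At the GI50, growth is halved.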 Activity calls are given as the source filed them. Rule as the data show it: active = GI50 up to about 1.1 µM and inactive = higher.
Test system: NCI-H322M
Experiment: NCI anticancer screen, dose series, 48 h

Structure (SMILES) | GI50
COC1/C=C/C(C)C(C(C)C(OC)C(C)CCC(=O)C(C)C(C/C=C/N(C)C=O)OC)OC(=O)/C=C/C=C(\C)CC(OC)C(OC)C2=CC(=O)O[C@@H](C(C)C(OC)CC(OC)/C=C/C(C)C(O)C1)[C@H]2O (stereo partly specified) | active: 0.343 µM
[O-][N+]1=C(c2ccccc2)COc2ccccc21 | inactive: > 100 µM
CCOc1cc(NC(C)=O)ccc1C(=O)NN1C(=O)C(Cl)C1c1ccco1 (stereo unspecified) | inactive: 16.6 µM
Nc1ccc2nc3n(c(=O)c2c1)CCCCC3 | inactive: > 100 µM
Nn1c(Sc2nc3ccccc3c(=O)n2N)nc2ccccc2c1=O | inactive: 21.3 µM
O=c1c2ccccc2c2ccccc2c(=O)n1-c1cc2c3ccccc3ccc2c2ccccc12 | inactive: > 100 µM
O=C(O)c1ccc(CNCc2ccccc2)cc1 | inactive: > 100 µM
O=[N+]([O-])c1ccc(Cc2nc3cc4ccccc4cc3[nH]2)cc1C(F)(F)F | inactive: 18.6 µM
O=C1C[S+]([O-])c2ccccc2N1 (stereo unspecified) | inactive: > 100 µM
Oc1cc2c3c(c1)CCCN3CCC2 | inactive: > 10 µM
C=C1C[C@H](O)[C@H]2C(C[Se]c3ccccc3)C(=O)O[C@@H]2[C@H]2[C@H](C)C(O)C[C@@H]12 (stereo partly specified) | inactive: 41.5 µM
COc1cc2c(cc1C1COc3cc4occc4cc3C1=O)OCO2 (stereo unspecified) | inactive: > 100 µM
C/C(=N\NC(N)=S)c1sc(-n2nc(-c3ccccc3)cc2-c2ccccc2)nc1C | inactive: 62.4 µM
CC(C)(C)OC(=O)N1CCC(C(=O)O)CC1 | inactive: > 100 µM
N#CC(C#N)=C(N)/C(C#N)=C/c1cc(O)c(O)c(Br)c1 | inactive: 52 µM
O=C1C(=CNc2ccc([N+](=O)[O-])cc2)C(=O)N(c2ccccc2)C(=O)N1c1ccccc1 | inactive: > 100 µM
CC1CC2C(=O)NC(=O)C2c2[nH]c3ccccc3c21 (stereo unspecified) | inactive: > 100 µM
CCOC(=O)c1nc2cc(C(F)(F)F)ccc2nc1Nc1cc(OC)c(OC)c(OC)c1 | inactive: > 100 µM
CC12OC1(C)C1C(=O)OCC1C2=O (stereo unspecified) | inactive: > 100 µM
COC(=O)C(=O)C(C(=O)C(=O)Nc1cc(Cl)c(Cl)cc1Cl)c1nc2ccc([N+](=O)[O-])cc2nc1O (stereo unspecified) | inactive: > 100 µM
COc1cc2c(cc1OCc1ccccc1)CNCC2 | inactive: > 100 µM
C[N+]12CCCCC1C(CN1C(=O)Cc3c4ccccc4c(c4ccccc34)CC1=O)CCC2 (stereo unspecified) | inactive: > 100 µM

Structure (SMILES) | GI50
CC1=NN(c2nc(N)nc(CO)n2)C(C)(C)C1 | inactive: > 100 µM
C#CC1(O)c2ccccc2C(=O)c2ccccc21 | inactive: > 100 µM
O=C1Nc2ccccc2/C1=C1/Nc2ccccc2/C1=N/OCCO | inactive: 1.95 µM
NS(=O)(=O)c1cccc(NC(=S)NC(=O)Nc2ccc(Cl)c(Cl)c2)c1 | inactive: 30.7 µM
COc1ccc2c(C)cc(C)nc2n1 | inactive: > 100 µM
O=C(O)c1ccc(C(=O)c2ccccc2C(=O)O)cc1C(=O)O | inactive: > 100 µM
CCOC(=O)/C(=C/c1ccc(C(F)(F)F)cc1)N(CC)CC | inactive: 73.8 µM
CN(C)CC1CCC/C(=C\c2ccccc2)C1=O (stereo unspecified) | inactive: 18 µM
CCCOC(=O)C1C(c2ccc(OC)cc2)NC(c2ccc(OC)cc2)C(C(=O)OCCC)S1(=O)=O (stereo unspecified) | inactive: > 10 µM
COc1ccc(CC2c3cc(OC)c(OC)c(OC)c3CC[N+]2(C)C)cc1Oc1ccc(CC2c3cc4c(c(OC)c3CC[N+]2(C)C)OCO4)cc1 (stereo unspecified) | inactive: > 100 µM
Nc1ccccc1/C(O)=C1/CCOC1=O | inactive: > 100 µM
c1ccc(N/N=N/c2ccc(-c3nc4ccccc4[nH]3)cc2)nc1 | inactive: 19.2 µM
Cc1ccc(NC(=O)C(=O)Cc2cccc[n+]2[O-])cc1C | inactive: > 100 µM
Cc1cn(C2OC(CO)C(O)C2F)c(=O)[nH]c1=O (stereo unspecified) | inactive: > 100 µM
CC1(C(=O)NCCN(CCNC(=O)C2(C)CC3(C)CC(C)(C2)C(=O)NC3=O)CCNC(=O)C2(C)CC3(C)CC(C)(C2)C(=O)NC3=O)CC2(C)CC(C)(C1)C(=O)NC2=O (stereo unspecified) | inactive: > 100 µM
N#CC12COC3(CCCCC3C1(C#N)C#N)OC2=N (stereo unspecified) | inactive: 25.4 µM
COC(=O)[C@H]1C=C[C@@H](C)n2c(=O)c3ccccc3c(=O)n21 | inactive: > 100 µM
O=C1C(Cl)C(c2cccc(Cl)c2)N1c1ccc(-n2c(S)nc3ccccc3c2=O)cc1 (stereo unspecified) | inactive: 25.7 µM
O=[N+]([O-])c1ccccc1S(=O)(=O)N1CCCc2cc(Cl)ccc21 | inactive: 28 µM
CC(=N/N=C/c1ccccn1)/C(C)=N/N=C(C)/C(C)=N/N=C(C)/C(C)=N/N=C(C)/C(C)=N\N=C\c1ccccn1 | inactive: > 100 µM
CN1CCN(c2ncc3c(n2)sc2c(=O)n(-c4ccccc4)cnc23)CC1 | inactive: > 100 µM
CC1Oc2c(c(=O)oc3ccccc23)[C@@]1(C)CC1C[C@H](C)C(=O)O1 (stereo partly specified) | inactive: > 100 µM

Structure (SMILES) | GI50
CC(=O)OC1C2CCC1C1C2N=NN1c1ccc([N+](=O)[O-])cc1 (stereo unspecified) | inactive: > 100 µM
CCO/C([O-])=C(\C(=O)c1ccccc1)[n+]1c(C)sc2ccccc21 | inactive: 29.2 µM
N#CNC(=N)Nc1ccc(Cl)cc1 | inactive: > 100 µM
N=C(N)NS(=O)(=O)c1ccc(N/N=C2/CCOC2=O)cc1 | inactive: > 100 µM
Clc1ccc(C(SCc2ccccc2)SCc2ccccc2)cc1 | inactive: > 10 µM
c1ccc2c(CN3CCC(C4CCN(Cc5cccc6ccccc56)CC4)CC3)cccc2c1 | inactive: 6.95 µM
[Zn+2][N+]12CCN3CCN4CCN(CC1)[PH]432 (stereo unspecified) | inactive: > 100 µM
CC(=O)CSc1c(-c2ccccc2)c(=O)n(-c2ccccc2)c(=S)n1-c1ccccc1 | inactive: > 100 µM
C/C(=N\NC(=S)N(C)CCN(C)C(=S)N/N=C(\C)c1ccccn1)c1ccccn1 | active: 0.459 µM
CC1=NN(C(=O)c2ccncc2)C(=O)C1/N=N/c1ccc2ccccc2c1 (stereo unspecified) | inactive: > 100 µM
O=c1onc2n1-c1ccc(Cl)cc1C(=S)N1CSCC21 (stereo unspecified) | inactive: 42.7 µM
C[C@H]1CC[C@@]2(NC1)O[C@H]1C[C@H]3[C@@H]4CC[C@H]5C[C@@H](O)CC[C@]5(C)[C@H]4CC[C@]3(C)[C@H]1[C@@H]2C | inactive: 75.2 µM
CC(O)(C(=O)N(O)c1ccc(Cl)cc1)c1ccc(Cl)cc1 (stereo unspecified) | inactive: 31.6 µM
COC(=O)/C=C(/C(=O)OC)c1cc2ccc3c([nH]c4ccccc43)c(C)c-2c1 | inactive: 12.1 µM
N=C(N)NCCN1CCCCCc2ccccc21 | inactive: > 10 µM
OC(CN1CCCCC1)c1ccc(/C=C/c2ccc(Cl)cc2)cc1 (stereo unspecified) | inactive: > 100 µM
CC(C)Cc1ccc(C(C)/C=C2\CCC(CN3CCOCC3)C2=O)cc1 (stereo unspecified) | inactive: 18 µM
c1ccc(CNCCCCNCCCNCc2ccccc2)cc1 | inactive: 21.7 µM
N#CC1(C2SCC[S+]2[O-])C2=C(C(=O)c3ccccc3C2=O)N2CCCC21 (stereo unspecified) | inactive: 3.44 µM
CCCCCCCCCCCCCCCCCC(=O)OCC(CN(C)CCN(C)C)OC(=O)CCCCCCCCCCCCCCCCC (stereo unspecified) | inactive: > 100 µM
COC(=O)c1sc(=O)sc1SCc1cccc(CSc2sc(=O)sc2C(=O)OC)c1 | inactive: > 100 µM
CCCCCCCCOCC1S(=O)(=O)OCCOS1(=O)=O | inactive: > 100 µM

Source: ChEMBL document CHEMBL1201862, “PubChem BioAssay data set” (2004)
